# Patent publication US9809808B2, “Antimicrobial agents” (KATHOLIEKE UNIVERSITEIT LEUVEN K.U. LEUVEN R&D, priority 2008, dated 2017)
# B1: KRK9_smi01: SEQ ID NO: 75: modified variant of smi01 with peptide stretch KRKKRKKRK (SEQ ID NO: 11) (protein)
# chain: AMGSKRKKRKKRKEYDMILKFGSKGDAVATLQKQLAKMGYKGVKDKPLSVDGHFGESTEFAVIQLQRKFGLVADGKVGDKTRQALAGDSVSKFLKDEDYKKAAIRLKVPELVIRVFGAVEGLGVGFLPNGKAKILFERHRMYFYLCQALGKTFANSQVKITPNIVNTLTGGYKGDAAEYTRLSMAINIHKESALMSTSWGQFQIMGENWKDLGYSSVQEFVDQQQLNEGNQLEAFIRFIEWKPGLLEALRKQDWDTVFTLYNGKNYKKLGYQAKFQKEWDHLEPIYREKTAA
# modifications: smi01_KRK9
# B2: pK2KZ144_pET32b_mod3: SEQ ID NO: 49: phiKZgp144 with 38-residue N-terminal peptide stretch with linker (SEQ ID NO: 28) (protein)
# chain: AMGSKRKKRKKRKRGSGSGKRKKRKKRKRGSGSGKRKKRKKRKKVLRKGDRGDEVCQLQTLLNLCGYDVGKPDGIFGNNTFNQVVKFQKDNCLDSDGIVGKNTWAELFSKYSPPIPYKTIPMPTANKSRAAATPVMNAVENATGVRSQLLLTFASIESAFDYEIKAKTSSATGWFQFLTGTWKTMIENYGMKYGVLTDPTGALRKDPRISALMGAELIKENMNILRPVLKREPTDTDLYLAHFFGPGAARRFLTTGQNELAATHFPKEAQANPSIFYNKDGSPKTIQEVYNLMDGKVAAHRK
# modifications: pK2KZ144_pET32b_mod3
# Legend:
# P. aeruginosa PAO1p [1] = type: cell-based, Pseudomonas aeruginosa
# P. aeruginosa PAO1p [2] = assay: Antibacterial activity of P2gp09 and PKP2gp09 with and without EDTA (30 minutes, colony count); type: cell-based, Pseudomonas aeruginosa; details: 0.5 mM EDTA, no endolysin, 30 minutes
# P. aeruginosa PAO1p [3] = assay: Antibacterial activity of PSP3gp10 and PKPSP3gp10 with and without EDTA (30 minutes, colony count); type: cell-based, Pseudomonas aeruginosa; details: 0.5 mM EDTA, no endolysin, 30 minutes
# [4] = system: P. aeruginosa PAO1p cells; assay: Antibacterial activity of phiKZgp144 variants with different polycationic peptide stretches (colony count after 1 hour); details: for Reduction [%] (relative inactivation): 100 μg/ml undialyzed protein, room temperature
# [5] = system: Acinetobacter baumannii DSMZ 30007; type: cell-based; details: 100 μg/ml undialyzed protein, 1 hour, room temperature
# P. aeruginosa PAO1p [6] = type: cell-based, Pseudomonas aeruginosa; details: 100 μg/ml undialyzed protein, 1 hour, room temperature
# [7] = system: P. aeruginosa PAO1p cells; assay: Antibacterial activity of unmodified and modified phiKZgp144 and ELgp188 (colony count after 1 hour); type: cell-based, Pseudomonas aeruginosa; details: 1 hour
# [8] = exponentially growing cells, 100 μg/ml undialyzed protein, room temperature
# [9] = 1.313 μM endolysin, no EDTA, 30 minutes
Molecule,Reduction [%] (relative inactivation) [4],Reduction [%] (relative inactivation) [5],relative inactivation in logarithmic units (log10N0/Ni) (P. aeruginosa PAO1p [1]),relative inactivation in logarithmic units (log10N0/Ni) (P. aeruginosa PAO1p [1]; [9]),further results
"O=C([O-])CN(CCN(CC(=O)[O-])CC(=O)O)CC(=O)O.[Na+].[Na+] [EDTA, reference compound]",,,,,"relative inactivation in logarithmic units (log10N0/Ni) (P. aeruginosa PAO1p [1]; 0.5 mM EDTA, no endolysin, 30 minutes): 0.130 +/− 0.023 logarithmic units; relative inactivation in logarithmic units (log10N0/Ni) (P. aeruginosa PAO1p [2]): 0.330 logarithmic units; relative inactivation in logarithmic units (log10N0/Ni) (P. aeruginosa PAO1p [3]): 0.146 +/− 0.002 logarithmic units"
phiKZgp144: SEQ ID NO: 1: unmodified modular endolysin originating from Pseudomonas aeruginosa phage φKZ [reference compound],0%,0%,,,"reduction of cell numbers / antimicrobial effect (in words) ([4]; 100 μg/ml): does not reduce cell numbers significantly; Reduction [%] (relative inactivation) (P. aeruginosa PAO1p [6]): 0%; reduction of cell numbers compared to the negative control (in words) ([7]; 100 μg/ml, student's t-test, α=0.05): do not reduce cell numbers significantly; antibacterial activity as relative inactivation (%) [7, 8]: 0 ± 15%; antibacterial activity in logarithmic units (log10N0/Ni) [7, 8]: 0.00 ± 0.06 log"
PKOBPgpLYS: SEQ ID NO: 61: OBPgpLYS (SEQ ID NO: 7) with N-terminal peptide stretch KRKKRKKRK (SEQ ID NO: 11),,,>5.687 logarithmic units,3.079 +/− 0.015 logarithmic units,
OBPgpLYS: SEQ ID NO: 7: unmodified modular endolysin of 328 amino acid residues originating from Pseudomonas putida phage OBP,,,4.357 +/− 1.857 logarithmic units,2.531 +/− 0.173 logarithmic units,
B1,,50%,,,
B2,99.9%,,,,

# Like-named read-outs stand apart in the source and are kept apart here.
